Measurements published in PubChem BioAssay AID624417 (National Center for Advancing Translational Sciences (NCATS), 2012).
About 6,400 (1.6%) of roughly 410,000 compounds were called active. Inconclusive results, whose numbers are uncertain, are shown with a selection of clear calls. Calls follow the shape of the dose curve; as a rule, active = well fitted inhibition curve with a large enough effect; inconclusive = small, poorly fitted or top-dose-only effect; inactive = no such curve, though single readings can be large or run the other way. No potency is given beside an inconclusive call; the fits are too rough.

Target: Glucagon-like peptide 1 receptor (Homo sapiens) (UniProt P43220)
Sequence of UniProt P43220 (P43220 whole entry, looked up): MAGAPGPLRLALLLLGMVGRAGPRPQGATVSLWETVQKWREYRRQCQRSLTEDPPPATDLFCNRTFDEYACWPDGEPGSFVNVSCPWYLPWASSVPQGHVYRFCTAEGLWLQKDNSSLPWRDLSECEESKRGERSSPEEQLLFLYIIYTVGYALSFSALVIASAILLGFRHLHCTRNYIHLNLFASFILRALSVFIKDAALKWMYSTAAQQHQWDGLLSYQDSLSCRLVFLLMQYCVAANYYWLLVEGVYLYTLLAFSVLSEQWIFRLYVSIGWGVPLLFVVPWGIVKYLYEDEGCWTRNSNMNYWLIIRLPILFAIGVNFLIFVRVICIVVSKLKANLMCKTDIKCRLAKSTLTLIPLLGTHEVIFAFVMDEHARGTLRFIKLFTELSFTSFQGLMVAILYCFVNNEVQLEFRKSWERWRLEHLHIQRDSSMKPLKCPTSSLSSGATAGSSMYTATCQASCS
Test: qHTS of GLP-1 Receptor Inverse Agonists (Inhibition Mode); also: nearly all actives have a fitted effect of over 55% in size
Settings: HEK293 GLP-1R CRE-luciferase, luminescence, 24 h, GLP-1R form is constitutively active; activity change, negative = inhibition: at 38.3 µM (top of the series) unless noted
Method in brief: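 Constitutively active GLP-1R drives a cAMP-responsive luciferase in stably transfected HEK293 cells; test compounds are added after overnight (12 h) attachment and left 24 hr, and signal loss in luminescence marks inhibition.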
% is scaled to controls: 0 for no effect and ±100 for the full control effect; potency is read from the fitted curve at half-maximal effect; tags tell the direction and shape of the fitted curve.

Question: Which “activity change, negative = inhibition” value does the source give for CC(C)(C)NC(=O)C(c1ccc(O)cc1)N(Cc1ccco1)C(=O)CCC(=O)Nc1ccccn1 (stereo not drawn) here?
Answer: inactive: 11.8%

Question: For O=C(Nc1nc(-c2ccncc2)cs1)C1c2ccccc2Oc2ccccc21, which Potency is on record?
Answer: inconclusive [inhibitor, single point]

Question: How did the Potency turn out when CCC(=O)N1CCc2cc(S(=O)(=O)CCC(=O)N3CCN(c4ccc(Cl)cc4)CC3)ccc21 was run?
Answer: inconclusive [inhibitor, partial curve]

Question: For COc1ccc(NC(=O)c2c(NCc3sccc3C)sc3c2CCCC3)c(OC)c1, which Potency is on record?
Answer: inconclusive [inhibitor, single point]

Question: With CCCOc1ccc(CN(C(=O)Cc2coc3ccc(CC)cc23)C2CCS(=O)(=O)C2)cc1 (stereo not drawn) as the compound, how does the Potency read?
Answer: inconclusive [inhibitor, single point]

Question: With CCOc1ccc(NC(=O)c2c(NC(=O)CNCCN3CCOCC3)sc3c2CCC3)cc1 as the compound, how does the Potency read?
Answer: active: 2.51 µM

Question: How did the Potency turn out when Cc1ccc(NC(=O)c2cccc(N3C(=O)C4C5C=CC(C5)C4C3=O)c2)cc1C (stereo not drawn) was run?
Answer: inconclusive [inhibitor, partial curve]

Question: COc1cccc(C(C)NC(=S)NCc2ccc(F)cc2)c1 (stereo not drawn) was tested. Which Potency did it give?
Answer: inconclusive [inhibitor, single point]

Question: How did the Potency turn out when Cc1oc(-c2ccc(Cl)cc2)nc1CN1CCC(C(=O)N2CCc3ccccc3C2)CC1 was run?
Answer: inconclusive [inhibitor, full curve, poor fit]

Question: How did the Potency turn out when CC1=CC(C)(C)Nc2ccc(Cc3ccc4c(c3)C(C)=CC(C)(C)N4)cc21 was run?
Answer: active: 2.82 µM

Question: How did the Potency turn out when CCN(CC)P(=O)(Nc1ccc(C)cc1Br)c1ccc(N(C)C)cc1NC(=O)c1ccco1 (stereo not drawn) was run?
Answer: inconclusive [inhibitor, full curve, poor fit]

Question: With O=C(CSc1nc2c(sc3ccccc32)c(=O)n1CCCN1CCCC1)NCc1ccccc1 as the compound, how does the Potency read?
Answer: inconclusive [inhibitor, full curve, poor fit]

Question: How did the Potency turn out when CCN(CCO)Cc1csc2ccc(Br)cc12 was run?
Answer: inconclusive [inhibitor, partial curve, poor fit]

Question: Which “activity change, negative = inhibition” value does the source give for COc1ccc(OCC(=O)Nc2cc(-c3ccccc3F)nn2-c2ccccc2)cc1 here?
Answer: inactive: 10.2%

Question: How did the Potency turn out when Cc1cccc(N=Nc2c(C)nn(-c3ccccc3)c2N)c1C was run?
Answer: inconclusive [inhibitor, single point]

Question: How did the Potency turn out when CN1CC(c2ccccc2)C(c2ccc(Cl)cc2)=N1 (stereo not drawn) was run?
Answer: inconclusive [inhibitor, partial curve, poor fit]

Question: For CCc1ccc(CNC(=O)c2cc3cc(S(=O)(=O)N4CCCCC4)ccc3n2C)cc1, which Potency is on record?
Answer: inconclusive [inhibitor, partial curve]

Question: How did the “activity change, negative = inhibition” value turn out when COC(=O)[C@]1(Cc2ccccc2)N[C@H](CN(C)C(=O)Nc2ccccc2)[C@@H]2C(=O)N(C)C(=O)[C@@H]21 was run?
Answer: inactive: -2.02%

Question: Cc1ccc(COC(=O)CN2C(=O)NC3(CCCCC3C)C2=O)cc1 (stereo not drawn) was tested. Which Potency did it give?
Answer: inconclusive [inhibitor, partial curve, poor fit]

Question: Which Potency does the source give for COC(=O)c1ccc(NC(=O)CN2CCN(c3cccc(Cl)c3)CC2)cc1 here?
Answer: inconclusive [inhibitor, partial curve, poor fit]

Question: Which Potency does the source give for CCn1c(SCCOc2ccc(Cl)cc2)nnc1-c1cccs1 here?
Answer: inconclusive [inhibitor, partial curve, poor fit]

Question: CC(C(=O)Nc1ccccc1)N(C)CCOc1ccc(Br)cc1 (stereo not drawn) was tested. Which Potency did it give?
Answer: inconclusive [inhibitor, partial curve, poor fit]

Question: How did the “activity change, negative = inhibition” value turn out when COc1cccc(CNCCSc2nnnn2C)c1OCc1ccccc1 was run?
Answer: inactive: -26.5%

Question: Cc1cc(C)c2c(c1)/C(=N/NS(=O)(=O)c1ccc(Br)cc1)CCC2 was tested. Which Potency did it give?
Answer: inconclusive [inhibitor, partial curve]

Question: CCSc1nsc(NC(=O)Nc2cccc(F)c2)n1 was tested. Which Potency did it give?
Answer: inconclusive [inhibitor, full curve, poor fit]

Question: How did the Potency turn out when CSc1cccc(NC(=S)N(Cc2ccccc2)Cc2cccnc2)c1 was run?
Answer: inconclusive [inhibitor, single point]

Question: Which Potency does the source give for COc1ccccc1N(C)c1cc2c(c3c1ccn3C)C1CCC2O1 (stereo not drawn) here?
Answer: inconclusive [inhibitor, single point]

Question: CSc1ccc(CNC(=O)C2CCCN(S(=O)(=O)N(C)c3ccc(F)cc3)C2)cc1 (stereo not drawn) was tested. Which Potency did it give?
Answer: inconclusive [inhibitor, single point]

Question: Which Potency does the source give for CCC(C)c1ccc(C(CC)NC(=O)C2CCCO2)cc1 (stereo not drawn) here?
Answer: inconclusive [inhibitor, partial curve, poor fit]

Question: COc1cccc(-c2cn3c(n2)sc2cc(C(=O)NCCCc4ccccc4)ccc23)c1 was tested. Which Potency did it give?
Answer: inconclusive [inhibitor, single point]

Question: For COc1ccc(-c2ccc3c(c2)c(Sc2ccccc2)c(-c2cc(OC)cc(OC)c2)n3C)cc1, which “activity change, negative = inhibition” value is on record?
Answer: inactive: -24.4%

Question: O=C(CC1(O)C(=O)N(CCc2ccccc2)c2ccc(Br)cc21)c1ccc(F)cc1 (stereo not drawn) was tested. Which Potency did it give?
Answer: inconclusive [inhibitor, partial curve, poor fit]

Question: With Cc1cc(C)c(C)c(S(=O)(=O)N2CCN(c3ccccn3)CC2)c1C as the compound, how does the Potency read?
Answer: inconclusive [inhibitor, partial curve, poor fit]

Question: How did the “activity change, negative = inhibition” value turn out when Cc1cc(C(=O)Nc2ccc(S(=O)(=O)Nc3onc(C)c3C)cc2)c(C)o1 was run?
Answer: inactive: 0%

Question: Which Potency does the source give for Cc1oc(-c2cccc3ccccc23)nc1CN1CCC[C@H]1CO here?
Answer: inconclusive [inhibitor, single point]

Question: For O=C(CSc1ccc(F)cc1)N1CCC(c2nc3ccccc3s2)CC1, which Potency is on record?
Answer: inconclusive [inhibitor, partial curve, poor fit]

Question: With CN(Cc1ccccc1F)C(=O)CCNC(=O)c1ccc(C(C)(C)C)cc1 as the compound, how does the Potency read?
Answer: inconclusive [inhibitor, partial curve, poor fit]

Question: How did the “activity change, negative = inhibition” value turn out when O=C(Cc1ccccc1)Nc1sc2c(c1C(=O)Nc1ccccc1)CCCCC2 was run?
Answer: inactive: -25.8%

Question: How did the Potency turn out when O=C(NCC1CC1)c1onc(CSc2ccccc2)c1C(=O)NCC1CC1 was run?
Answer: inconclusive [inhibitor, partial curve, poor fit]

Question: How did the “activity change, negative = inhibition” value turn out when O=c1oc2c(O)cccc2cc1-c1nc2ccccc2[nH]1 was run?
Answer: inactive: 8.65%

Question: For Cc1ccc(CN2CCN(Cc3ccccc3C(F)(F)F)CC2)cc1, which Potency is on record?
Answer: inconclusive [inhibitor, single point]

Question: With O=[N+]([O-])c1ccccc1NCCOc1ccccc1 as the compound, how does the Potency read?
Answer: inconclusive [inhibitor, single point]

Question: Which Potency does the source give for CCc1ccc(-c2cc(C)no2)cc1S(=O)(=O)N1CCN(c2ccc(OC)cc2)CC1 here?
Answer: inconclusive [inhibitor, partial curve]

Question: O=C(c1c(F)cccc1F)N1CCCC(c2nc(-c3ccc(Cl)cc3)no2)C1 (stereo not drawn) was tested. Which Potency did it give?
Answer: inconclusive [inhibitor, partial curve, poor fit]

Question: For CC(C)C[C@H](NC(=O)c1nc[nH]c1C(=O)N[C@@H](CCCCN)C(=O)OC(C)(C)C)C(=O)OC(C)(C)C, which “activity change, negative = inhibition” value is on record?
Answer: inactive: -9.6%

Question: How did the Potency turn out when CN(C)c1ccc(/C=N/NC(=O)c2ccccn2)cc1 was run?
Answer: inconclusive [inhibitor, single point]

Question: Which “activity change, negative = inhibition” value does the source give for CC(=O)c1ccc(S(=O)(=O)Nc2ccc(-c3ccc(N4CCCCCC4)nn3)cc2)cc1 here?
Answer: inactive: 8.16%

Question: COC(=O)c1ccc(C(=O)NC2CCCc3c2cnn3-c2ccc(C)c(C)c2)cc1 (stereo not drawn) was tested. Which Potency did it give?
Answer: inconclusive [inhibitor, full curve, poor fit]

Question: CCOc1ccc(C)cc1-n1nc2ccccc2n1 was tested. Which Potency did it give?
Answer: inconclusive [inhibitor, single point]

Question: Which Potency does the source give for O=C(NCc1ccco1)/C(=C/C=C\c1ccccc1)NC(=O)c1ccc(Br)o1 here?
Answer: inconclusive [inhibitor, single point]

Question: CSc1ccc(CCNC(=O)CCc2nnc3ccc(N4CCOCC4)nn23)cc1 was tested. Which “activity change, negative = inhibition” value did it give?
Answer: inactive: 9.8%

Question: Which Potency does the source give for N/C(=N\OC(=O)c1ccc2ccccc2c1)c1ccccn1 here?
Answer: inconclusive [inhibitor, partial curve, poor fit]

Question: How did the Potency turn out when Cc1cc(C)c2c(N)c3cccc(C)c3nc2n1 was run?
Answer: inconclusive [inhibitor, partial curve, poor fit]

Question: With COc1ccccc1CN1C(=O)C(Cc2ccccc2)ON=C1c1ncccc1C (stereo not drawn) as the compound, how does the Potency read?
Answer: inconclusive [inhibitor, single point]

Question: With O=C(O)CN(c1ccccn1)S(=O)(=O)c1ccccc1 as the compound, how does the “activity change, negative = inhibition” value read?
Answer: inactive: 2.06%

Question: Which Potency does the source give for O=C(c1cc(COc2c(F)cccc2F)on1)N1CCN(C2CCCCC2)C(=O)C1 here?
Answer: inconclusive [inhibitor, single point]

Question: With O=[N+]([O-])c1ccc2nc(-[n+]3c(-c4ccccc4)cc(-c4ccccc4)cc3-c3ccccc3)[nH]c2c1 as the compound, how does the Potency read?
Answer: inconclusive [inhibitor, partial curve, poor fit]

Question: With CCOC(=O)C1=CCC(c2cccn2C(=O)OC(C)(C)C)N(S(=O)(=O)c2ccc(C)cc2)C1 (stereo not drawn) as the compound, how does the Potency read?
Answer: inconclusive [inhibitor, single point]

Question: For c1ccc(-c2onc(-c3ccco3)c2-c2ccc3[nH]ccc3c2)cc1, which Potency is on record?
Answer: inconclusive [inhibitor, partial curve, poor fit]

Question: With O=C(C1=C[C@H](c2ccc(C(F)(F)F)cc2)C[C@H](OCCCCO)O1)N1CCN(Cc2ccccc2)CC1 as the compound, how does the Potency read?
Answer: inconclusive [inhibitor, single point]

Question: How did the Potency turn out when Cc1csc(NC(=O)c2c(-c3c(Cl)cccc3Cl)noc2C)n1 was run?
Answer: active: 11.2 µM

Question: Cc1cc(NC(=O)C(C)SCC(=O)Nc2cccc(S(=O)(=O)N3CCCCCC3)c2)no1 (stereo not drawn) was tested. Which Potency did it give?
Answer: inconclusive [inhibitor, single point]

Question: For CCNC(=O)C/C(C)=N/NC(=O)C12CC3CC(CC(C3)C1)C2, which Potency is on record?
Answer: inconclusive [inhibitor, single point]
